Common to all, as to type: in vivo
In one assay the test system is Botrytis cinerea. Description: Test Example B: Gray mold on tomato. To be noted: for Test B control value: Gray mold on tomato. From the text:
[Test Example B] Gray Mold on Tomato
Seeds of a test plant (tomato variety: Oogata Fukuju) were planted followed by cultivating until three to five first leaves (true leaves) appeared.

The test system of a further assay is Alternaia brassicicola. Description: Test Example C: Alternaria sooty spot on cabbage. An excerpt: [Test Example C] Alternaria Sooty Spot on Cabbage
Seeds of a test plant (cabbage variety: Shikidori) were planted followed by cultivating until the cotyledons extended.

For assay [1], the system named is Blumeria graminis f sp. hordei. Put plainly: Test Example D: Powdery mildew on barley. As to conditions: for Test D control value: Powdery mildew on barley. An excerpt:
[Test Example D] Powdery Mildew on Barley
After the sprayed dilutions were dried, conidia of Blumeria graminis f sp. hordei were inoculated to the plants by shaking off.

Another assay concerns Puccinia recondita. Description: Test Example E: Brown rust on wheat. As to conditions: for Test E control value: Brown rust on wheat. From the text:
[Test Example E] Brown Rust on Wheat

Where [2] appears, read: Alternaria sooty spot on cabbage.
Where [3] appears, read: 250 ppm spray, preventive, control value class.

For the compound `Cn1c(-c2c(F)cccc2F)c(-c2ccccc2I)cc(Br)c1=O` [Compound 116], the “Test B control value” with Botrytis cinerea is reported as “L (L shows 50% or less of control values)”. The “Test C control value” in the assay with Alternaia brassicicola (setting [2]) is “L (L shows 50% or less of control values)”. The “Test D control value” in assay [1] is reported as “H (H shows more than 50% of control values)”. Further, the “Test E control value” with Puccinia recondita is on record as “H (H shows more than 50% of control values)”.

As for `Cn1c(-c2c(F)cccc2F)c(-c2ccccc2Br)cc(Cl)c1=O` [Compound 95], in the assay with Botrytis cinerea, the “Test B control value” was “H (H shows more than 50% of control values)”. For the same compound, the “Test C control value” with Alternaia brassicicola (setting [2]) is on record as “H (H shows more than 50% of control values)”. In addition, the “Test D control value” in assay [1] is reported as “H (H shows more than 50% of control values)”. Besides, in the assay on Puccinia recondita, the “Test E control value” is given as “H (H shows more than 50% of control values)”.

With `CCn1c(-c2c(F)cccc2F)c(-c2cc(OC)ccc2Cl)cc(Br)c1=O` [Compound 55], the “Test B control value” with Botrytis cinerea is reported as “H (H shows more than 50% of control values)”. The “Test C control value” in the assay on Alternaia brassicicola (setting [2]) is “H (H shows more than 50% of control values)”. Also, the “Test D control value” in assay [1] is listed as “H (H shows more than 50% of control values)”. In addition, in the assay with Puccinia recondita, the “Test E control value” is reported as “H (H shows more than 50% of control values)”.

With `COc1cc(OC)c(Cl)c(C2=C(c3c(F)cccc3F)N(CC(F)(F)F)C(=O)CC2)c1` [Compound 334], in the assay with Botrytis cinerea (setting [3]), the “Test B control value (gray mold on tomato)” value is listed as “H (H shows more than 50% of control values)”. Also, the “Test C control value (Alternaria sooty spot on cabbage)” value in the assay with Alternaia brassicicola (setting [3]) is “L (L shows 50% or less of control values)”. In addition, the “Test D control value (powdery mildew on barley)” value in assay [1] (setting [3]) is “H (H shows more than 50% of control values)”. In addition, the “Test E control value (brown rust on wheat)” value in the assay with Puccinia recondita (setting [3]) was “H (H shows more than 50% of control values)”.

For `COc1cc(-c2ccc(=O)n(C)c2-c2c(F)cccc2F)cc(OC)c1Cl` [Compound 31], the “Test B control value” with Botrytis cinerea is on record as “H (H shows more than 50% of control values)”. The “Test C control value” with Alternaia brassicicola (setting [2]) is “H (H shows more than 50% of control values)”. Moreover, the “Test D control value” in assay [1] is on record as “H (H shows more than 50% of control values)”. In addition, the “Test E control value” in the assay with Puccinia recondita is recorded as “H (H shows more than 50% of control values)”.

Consider `CCn1c(-c2c(F)cccc2F)c(-c2ccccc2OC)ccc1=O` [Compound 123], for which the “Test B control value” in the assay on Botrytis cinerea is “H (H shows more than 50% of control values)”. Besides, in the assay with Alternaia brassicicola (setting [2]), the “Test C control value” was “H (H shows more than 50% of control values)”. Also, in assay [1], the “Test D control value” is “H (H shows more than 50% of control values)”. Also, in the assay with Puccinia recondita, the “Test E control value” is listed as “H (H shows more than 50% of control values)”.

Consider `CCn1c(-c2c(F)cc(Cl)cc2F)c(-c2cc(OC)c(Cl)c(OC)c2)ccc1=O` [Compound 122], for which the “Test B control value” with Botrytis cinerea is listed as “H (H shows more than 50% of control values)”. Also, the “Test C control value” in the assay with Alternaia brassicicola (setting [2]) is recorded as “H (H shows more than 50% of control values)”. The “Test D control value” in assay [1] is listed as “H (H shows more than 50% of control values)”. The “Test E control value” in the assay with Puccinia recondita is recorded as “H (H shows more than 50% of control values)”.

In the case of `CCn1c(-c2c(F)cccc2F)c(-c2c(Cl)c(OC)cc(OC)c2Br)cc(Cl)c1=O` [Compound 69], in the assay on Botrytis cinerea, the “Test B control value” is “H (H shows more than 50% of control values)”. For the same compound, the “Test C control value” in the assay with Alternaia brassicicola (setting [2]) is reported as “L (L shows 50% or less of control values)”. The “Test D control value” in assay [1] was “L (L shows 50% or less of control values)”. The “Test E control value” with Puccinia recondita is given as “L (L shows 50% or less of control values)”.

Consider `COc1cnc(-c2c(-c3c(F)cccc3F)ccc(=O)n2C)c(Cl)c1` [Compound 7], for which the “Test B control value” with Botrytis cinerea is “H (H shows more than 50% of control values)”. In addition, the “Test C control value” with Alternaia brassicicola (setting [2]) is “H (H shows more than 50% of control values)”. The “Test D control value” in assay [1] is “L (L shows 50% or less of control values)”. Also, the “Test E control value” with Puccinia recondita was “H (H shows more than 50% of control values)”.

For the compound `CCn1c(-c2c(F)cccc2F)c(-c2ccccc2Cl)ccc1=O` [Compound 74], the “Test B control value” with Botrytis cinerea is on record as “H (H shows more than 50% of control values)”. For the same compound, the “Test C control value” with Alternaia brassicicola (setting [2]) was “H (H shows more than 50% of control values)”. In assay [1], the “Test D control value” is “H (H shows more than 50% of control values)”. In addition, in the assay on Puccinia recondita, the “Test E control value” was “H (H shows more than 50% of control values)”.

Turning to `CCn1c(-c2ncc(OC)cc2Cl)c(-c2ccccc2)ccc1=O` [Compound 11], the “Test B control value” in the assay with Botrytis cinerea is “H (H shows more than 50% of control values)”. In the assay on Alternaia brassicicola (setting [2]), the “Test C control value” is listed as “H (H shows more than 50% of control values)”. Moreover, the “Test D control value” in assay [1] is reported as “H (H shows more than 50% of control values)”. Also, the “Test E control value” with Puccinia recondita is on record as “H (H shows more than 50% of control values)”.

With `CCn1c(-c2c(F)cccc2F)c(-c2ccccc2)cc(Cl)c1=O` [Compound 48], in the assay on Botrytis cinerea, the “Test B control value” was “L (L shows 50% or less of control values)”. In addition, in the assay with Alternaia brassicicola (setting [2]), the “Test C control value” is on record as “H (H shows more than 50% of control values)”. Besides, in assay [1], the “Test D control value” is reported as “L (L shows 50% or less of control values)”. Further, in the assay with Puccinia recondita, the “Test E control value” is reported as “L (L shows 50% or less of control values)”.

Consider `COc1cc(F)c(-c2c(-c3ccc(F)cc3Cl)ccc(=O)n2C)c(F)c1` [Compound 37], for which the “Test B control value” in the assay on Botrytis cinerea is “H (H shows more than 50% of control values)”. For the same compound, in the assay with Alternaia brassicicola (setting [2]), the “Test C control value” is listed as “H (H shows more than 50% of control values)”. In assay [1], the “Test D control value” was “H (H shows more than 50% of control values)”. In addition, the “Test E control value” with Puccinia recondita is “H (H shows more than 50% of control values)”.

Regarding `COc1ccc(Cl)cc1-c1cc(Cl)c(=O)n(C)c1-c1c(F)cccc1F` [Compound 138], in the assay with Botrytis cinerea, the “Test B control value” is listed as “L (L shows 50% or less of control values)”. Besides, the “Test C control value” in the assay with Alternaia brassicicola (setting [2]) was “L (L shows 50% or less of control values)”. The “Test D control value” in assay [1] was “H (H shows more than 50% of control values)”. For the same compound, in the assay on Puccinia recondita, the “Test E control value” is recorded as “H (H shows more than 50% of control values)”.

For the compound `COCn1c(-c2c(F)cccc2F)c(-c2cc(OC)ccc2Cl)cc(Cl)c1=O` [Compound 414], the “Test B (control value class)” value in the assay on Botrytis cinerea (gray mold on tomato, Botrytis cinerea, 250 ppm spray) is on record as “H (H shows more than 50% of control values)”. Moreover, the “Test C (control value class)” value with Alternaia brassicicola (Alternaria sooty spot on cabbage, 250 ppm spray) is recorded as “H (H shows more than 50% of control values)”. Moreover, the “Test D (control value class)” value in assay [1] (powdery mildew on barley, 250 ppm spray) is “H (H shows more than 50% of control values)”. In addition, the “Test E (control value class)” value with Puccinia recondita (brown rust on wheat, Puccinia recondita, 250 ppm spray) was “H (H shows more than 50% of control values)”.

For the compound `COc1cc(F)c(-c2c(-c3cc(OC)cc(OC)c3Br)ccc(=O)n2C)c(F)c1` [Compound 81], the “Test B control value” with Botrytis cinerea was “H (H shows more than 50% of control values)”. Besides, the “Test C control value” with Alternaia brassicicola (setting [2]) is given as “H (H shows more than 50% of control values)”. Further, in assay [1], the “Test D control value” is given as “H (H shows more than 50% of control values)”. Besides, the “Test E control value” with Puccinia recondita is listed as “H (H shows more than 50% of control values)”.

As for `COc1cc(OC)cc(-c2ccc(=O)n(C)c2-c2c(F)cc(OC)cc2F)c1` [Compound 80], the “Test B control value” in the assay on Botrytis cinerea is on record as “H (H shows more than 50% of control values)”. Further, the “Test C control value” in the assay on Alternaia brassicicola (setting [2]) is given as “H (H shows more than 50% of control values)”. For the same compound, the “Test D control value” in assay [1] is “H (H shows more than 50% of control values)”. Further, the “Test E control value” with Puccinia recondita is recorded as “H (H shows more than 50% of control values)”.

For the origin of these results see patent US10299477B2 (priority 2015, dated 2019).
